The supplement of paper PMC9174493
Counter-ions that a name gives are not always drawn. This is one part of the list. Single values of this set are uncertain. Values with irradiation are relative to irradiated vehicle.

What follows are compounds tested on A549-Dual (assay: ISRE reporter (Lucia luciferase) activity, viability-corrected, relative to vehicle (fold change vs vehicle); higher = more activation of STING-IRF / NF-kB immune response reporter). Conditions: 10 µM; irradiation: 8 Gy/4 fr.

Question: `Cc1nc2c([nH]1)-c1ccccc1N(C(=O)c1ccc(NC(=O)c3ccccc3-c3ccccc3)cc1)CC2.Cl` [Conivaptan HCl] was tested. Which ISRE reporter did it give?
Answer: Its ISRE reporter is 0.763.

Question: How did the ISRE reporter turn out when `O=C(Nc1ccc2c(=O)cc(-c3nnn[nH]3)oc2c1)c1ccc(OCCCCc2ccccc2)cc1` [Pranlukast] was run?
Answer: The ISRE reporter was 0.65.

Question: With `C[C@H](O)C(=O)O` [L-Lactic acid] as the compound, how does the ISRE reporter read?
Answer: Its ISRE reporter is 0.888.

Question: `CC1=C(C(=O)O)N2C(=O)C(NC(=O)C(N)C3=CCC=CC3)C2SC1` (stereo unspecified) [Cefradine] was tested. Which ISRE reporter did it give?
Answer: Its ISRE reporter is 1.03.

Question: With `O=C1c2c(O)cccc2Cc2cccc(O)c21` [Dithranol] as the compound, how does the ISRE reporter read?
Answer: Its ISRE reporter is 0.737.

Question: With `O=c1c(-c2ccc(O)cc2)coc2cc(O)ccc12` [Daidzein] as the compound, how does the ISRE reporter read?
Answer: The ISRE reporter was 0.57.

Question: With `CC(C)(CO)C(O)C(=O)NCCC(=O)NCCSSCCNC(=O)CCNC(=O)C(O)C(C)(C)CO` [D-Pantethine] as the compound, how does the ISRE reporter read?
Answer: Its ISRE reporter is 0.719.

Same assay, conditions: 10 µM; irradiation: none

Question: How did the ISRE reporter turn out when `CS(=O)(=O)O.Fc1ccc(C2CCNCC2COc2ccc3c(c2)OCO3)cc1` (stereo unspecified) [Paroxetine mesylate] was run?
Answer: Its ISRE reporter is 0.684.

Question: With `Clc1ccccc1C(c1ccccc1)(c1ccccc1)n1ccnc1` [Clotrimazole] as the compound, how does the ISRE reporter read?
Answer: Its ISRE reporter is 0.7.

Question: Which ISRE reporter does the source give for `CCS(=O)(=O)CCn1c([N+](=O)[O-])cnc1C` [Tinidazole] here?
Answer: The ISRE reporter was 0.835.

Question: For `Clc1ccc(COC(Cn2ccnc2)c2ccc(Cl)cc2Cl)cc1` (stereo unspecified) [Econazole], which ISRE reporter is on record?
Answer: Its ISRE reporter is 0.445.

Question: `O=C(O)c1ccc(NC(=O)C(Cc2ccc(O)cc2)NC(=O)c2ccccc2)cc1` (stereo unspecified) [Bentiromide] was tested. Which ISRE reporter did it give?
Answer: The ISRE reporter was 0.515.

Question: With `OCC(O)C(O)C(OC1OC(CO)C(O)C(O)C1O)C(O)CO` (stereo unspecified) [Lactitol] as the compound, how does the ISRE reporter read?
Answer: The ISRE reporter was 0.668.

Question: How did the ISRE reporter turn out when `CCNC(=O)CC[C@H](N)C(=O)O` [L-Theanine] was run?
Answer: Its ISRE reporter is 0.499.

Question: `CN(C)CC/C=C1/c2ccccc2Sc2ccc(Cl)cc21` [Chlorprothixene] was tested. Which ISRE reporter did it give?
Answer: Its ISRE reporter is 1.41.

Question: For `CC(=O)OC1Cc2ccccc2N(C(N)=O)c2ccccc21` (stereo unspecified) [Eslicarbazepine Acetate], which ISRE reporter is on record?
Answer: Its ISRE reporter is 0.779.

Question: How did the ISRE reporter turn out when `COc1ccc(CN(CCN(C)C)c2ncccn2)cc1` [Thonzylamine] was run?
Answer: Its ISRE reporter is 0.635.

Question: With `CC1(C)CCCC(C)(C2CCC3(C)C2C(O)CC2C4(C)CCC(O)C(C)(C)C4C(O)CC23C)O1` (stereo unspecified) [Panaxatriol] as the compound, how does the ISRE reporter read?
Answer: The ISRE reporter was 0.573.

Question: How did the ISRE reporter turn out when `CN(C)C(CCOc1cccc2ccccc12)c1ccccc1.Cl` (stereo unspecified) [Dapoxetine HCl] was run?
Answer: Its ISRE reporter is 1.01.

Question: Which ISRE reporter does the source give for `CNCC(O)C(O)C(O)C(O)CO.CNCC(O)C(O)C(O)C(O)CO.O=C(O)CN1CCN2CCN(CC(=O)O)CC(=O)[O][Gd]([O]C(=O)C2)[O]C(=O)C1` [Gadopentetate Dimeglumine] here?
Answer: Its ISRE reporter is 0.633.

Question: `O=C[C@H](O)[C@@H](O)[C@H](O)[C@H](O)C(=O)O` [D-Glucuronic acid] was tested. Which ISRE reporter did it give?
Answer: Its ISRE reporter is 0.552.

Question: How did the ISRE reporter turn out when `CC(=O)O.CC(=O)O.CCC(C)CC(C)CCCCCCCCC(=O)NC1CC(O)C(NCCN)NC(=O)C2C(O)CCN2C(=O)C(C(O)CCN)NC(=O)C(C(O)C(O)c2ccc(O)cc2)NC(=O)C2CC(O)CN2C(=O)C(C(C)O)NC1=O` (stereo unspecified) [Caspofungin Acetate] was run?
Answer: The ISRE reporter was 1.03.

Question: How did the ISRE reporter turn out when `CC(OC(=O)OC1CCCCC1)OC(=O)C1=C(CSc2nnnn2CCN(C)C)CSC2C(NC(=O)Cc3csc(N)n3)C(=O)N12.Cl.Cl` (stereo unspecified) [Cefotiam Hexetil Hydrochloride] was run?
Answer: Its ISRE reporter is 1.46.

Question: Which ISRE reporter does the source give for `CCCCCN(C)CCC(O)(P(=O)(O)O)P(=O)(O)O.O.[NaH]` [Ibandronate sodium] here?
Answer: The ISRE reporter was 0.963.

Question: `CC(O)C1C(=O)N2C(C(=O)O)=C(SC3CNC(CNS(N)(=O)=O)C3)C(C)C12.O` (stereo unspecified) [Doripenem Hydrate] was tested. Which ISRE reporter did it give?
Answer: Its ISRE reporter is 0.704.

Question: `CS(=O)(=O)OCCCCOS(C)(=O)=O` [Busulfan] was tested. Which ISRE reporter did it give?
Answer: The ISRE reporter was 0.952.

Question: How did the ISRE reporter turn out when `CCOCCn1c(N2CCCN(C)CC2)nc2ccccc21` [Emedastine] was run?
Answer: Its ISRE reporter is 0.561.

Question: `CC1(C)OC2COC3(COS(N)(=O)=O)OC(C)(C)OC3C2O1` (stereo unspecified) [Topiramate] was tested. Which ISRE reporter did it give?
Answer: Its ISRE reporter is 0.798.

Question: How did the ISRE reporter turn out when `O=C(O)CCCCCCCCC(=O)O` [Sebacic acid] was run?
Answer: Its ISRE reporter is 0.72.

Question: For `Nc1nc(=O)[nH]cc1F` [Flucytosine], which ISRE reporter is on record?
Answer: The ISRE reporter was 0.766.

Question: For `CCCCCCCCCCCCCCCCCCOCC(O)CO` (stereo unspecified) [Batyl alcohol], which ISRE reporter is on record?
Answer: The ISRE reporter was 0.768.

Question: With `CC(CN(C)C)CN1c2ccccc2CCc2ccccc21.O=C(O)/C=C\C(=O)O` (stereo unspecified) [Trimipramine Maleate] as the compound, how does the ISRE reporter read?
Answer: Its ISRE reporter is 0.751.

Question: With `CCCCCCCC/C=C\CCCCCCCC(=O)OC` [Methyl Oleate] as the compound, how does the ISRE reporter read?
Answer: Its ISRE reporter is 0.366.

Question: With `CC(O)C1C(=O)N2C(C(=O)[O-])=C(SC3Cn4cnc[n+]4C3)C(C)C12` (stereo unspecified) [Biapenem] as the compound, how does the ISRE reporter read?
Answer: The ISRE reporter was 1.21.

Question: Which ISRE reporter does the source give for `CN(C)c1cc(NC(=O)CNC(C)(C)C)c(O)c2c1CC1CC3C(N(C)C)C(O)=C(C(N)=O)C(=O)C3(O)C(O)=C1C2=O` (stereo unspecified) [Tigecycline] here?
Answer: Its ISRE reporter is 0.791.

Question: Which ISRE reporter does the source give for `CC(=O)NS(=O)(=O)c1ccc(N)cc1` [Sulfacetamide] here?
Answer: The ISRE reporter was 0.645.

Question: For `CN(C)CCOC(C)(c1ccccc1)c1ccccn1.O=C(O)CCC(=O)O` (stereo unspecified) [Doxylamine Succinate], which ISRE reporter is on record?
Answer: Its ISRE reporter is 0.744.

Question: With `CC(C)c1nc(N(C)S(C)(=O)=O)nc(-c2ccc(F)cc2)c1/C=C/C(O)CC(O)CC(=O)[O-].CC(C)c1nc(N(C)S(C)(=O)=O)nc(-c2ccc(F)cc2)c1/C=C/C(O)CC(O)CC(=O)[O-].[Ca+2]` (stereo unspecified) [Rosuvastatin Calcium] as the compound, how does the ISRE reporter read?
Answer: The ISRE reporter was 0.817.

Question: `Cc1cc(C)nc([N]([Na])S(=O)(=O)c2ccc(N)cc2)n1` [Sulfamethazine Sodium Salt] was tested. Which ISRE reporter did it give?
Answer: Its ISRE reporter is 0.793.

Question: How did the ISRE reporter turn out when `Cc1nc2c([nH]1)-c1ccccc1N(C(=O)c1ccc(NC(=O)c3ccccc3-c3ccccc3)cc1)CC2.Cl` [Conivaptan HCl] was run?
Answer: Its ISRE reporter is 1.25.

Question: `O=C(Nc1ccc2c(=O)cc(-c3nnn[nH]3)oc2c1)c1ccc(OCCCCc2ccccc2)cc1` [Pranlukast] was tested. Which ISRE reporter did it give?
Answer: The ISRE reporter was 0.468.

Question: With `C[C@H](O)C(=O)O` [L-Lactic acid] as the compound, how does the ISRE reporter read?
Answer: The ISRE reporter was 0.825.

Question: Which ISRE reporter does the source give for `CC1=C(C(=O)O)N2C(=O)C(NC(=O)C(N)C3=CCC=CC3)C2SC1` (stereo unspecified) [Cefradine] here?
Answer: The ISRE reporter was 1.14.

Question: Which ISRE reporter does the source give for `O=C1c2c(O)cccc2Cc2cccc(O)c21` [Dithranol] here?
Answer: Its ISRE reporter is 0.588.

Question: For `O=c1c(-c2ccc(O)cc2)coc2cc(O)ccc12` [Daidzein], which ISRE reporter is on record?
Answer: Its ISRE reporter is 1.03.

Question: With `CC(C)(CO)C(O)C(=O)NCCC(=O)NCCSSCCNC(=O)CCNC(=O)C(O)C(C)(C)CO` [D-Pantethine] as the compound, how does the ISRE reporter read?
Answer: The ISRE reporter was 0.662.
